Reference: PubChem BioAssay AID2101 (National Center for Advancing Translational Sciences (NCATS), 2009)
Among all 330,000 compounds or so, about 300 (0.091%) were called active. Inconclusive results, whose numbers are uncertain, are shown with a selection of clear calls. The call rests on the fitted dose curve; in most records, active means well fitted inhibition curve with a large enough effect; inconclusive means small, poorly fitted or top-dose-only effect, or effect the other way, or another doubt; inactive means no such curve, though single readings can be large or run the other way. Potencies of inconclusive entries are left out as doubtful fits.

target: Lysosomal acid glucosylceramidase (Homo sapiens) (UniProt P04062); assay: qHTS Assay for Inhibitors and Activators of N370S glucocerebrosidase as a Potential Chaperone Treatment of Gaucher Disease; settings: N370S GC spleen homogenate, 4MU-glucoside fluorescence; activity change, negative = inhibition: at 59.4 µM (top of the series) unless noted;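 on activity change, negative = inhibition: 0% = full enzyme activity and -100% = no enzyme basal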
Potency means the concentration at half of the fitted maximal effect.

| SMILES | Potency | activity change, negative = inhibition |
| --- | --- | --- |
| C=CCN(C(=O)C1CSC2(C)CCC(=O)N12)c1nc(-c2ccccc2)cs1 (centres undefined) | inconclusive [activator, single point] |  |
| NNC(=O)CNC(=O)c1cccc(Br)c1 | inactive |  |
| CC(NC(=O)CCSc1nc(-c2ccc3c(c2)OCO3)cc(C(F)(F)F)n1)c1ccccc1 (centres undefined) | inactive |  |
| COc1ccc2cc(C(=O)N3CCN(Cc4ccc5c(c4)OCO5)CC3)[nH]c2c1 | inactive |  |
| Cc1cnccc1CN(C)Cc1cn(C)nc1-c1ccc(Oc2ccccc2)cc1 | inconclusive [inhibitor, single point] |  |
| c1cncc(-c2nnc(-c3cccs3)o2)c1 | inactive |  |
| Cc1ccc(NC(=O)CSc2ncn(-c3ccccc3)n2)cc1C | inconclusive [activator, partial curve] |  |
| Cc1sccc1/C=N/NC(=O)c1ccco1 | inconclusive [activator, partial curve] |  |
| CCN(CCNC(=O)C1CCN(Cc2nc(-c3cccc(Cl)c3)oc2C)CC1)c1ccccc1 | inconclusive [inhibitor, full curve] |  |
| O=C(CSc1ncccc1-c1nc2ccccc2[nH]1)N1CCCCC1 | inconclusive [activator, single point] |  |
| O=C1/C(=C/c2cccc(Br)c2)SC(=S)N1CCC(=O)N(CCO)c1ccccc1 | inactive |  |
| O=S1(=O)CCC(NC(=S)Nc2ccc3ccccc3c2)C1 (centres undefined) | inconclusive [inhibitor, single point] |  |
| COc1ccc(CNC(=O)CCS(=O)(=O)c2ccc(Br)cc2)cc1 | inactive |  |
| Cc1cc2n(n1)C(c1sccc1C)Nc1c(C)cccc1-2 (centres undefined) | inconclusive [activator, partial curve] |  |
| O=C(Nc1sc2c(c1C(=O)NCC1CCCO1)CCCC2)c1cccs1 (centres undefined) | inconclusive [activator, partial curve] |  |
| Cc1cc(C)cc(NC(=O)Nc2ccc(N3CCCCC3)cc2)c1 | inconclusive [activator, partial curve] |  |
| CCOC(=O)c1cc2ccc3ccccc3c2oc1=O | inconclusive [activator, partial curve] |  |
| Cc1ccn2c(=O)nc(SCc3cccc(C(F)(F)F)c3)nc2c1 | inconclusive [activator, partial curve] |  |
| COc1ccc2c(c1)C(=O)[C@@H](OC(=O)N[C@H]1CCCc3ccccc31)[C@H](c1ccc(OC)c(Br)c1)O2 | inactive |  |
| O=C(c1cnc(N2CCN(c3ncccn3)CC2)c2ccccc12)N1CCN(c2ncccn2)CC1 | inactive |  |
| Cc1ccc(C(=O)N/N=C/c2nc3ccccc3n2C)cc1 | inconclusive [activator, partial curve] |  |
| Cc1ccc(S(=O)(=O)n2c3ccccc3c3nnc(C(=O)c4ccccc4)nc32)cc1 |  | inactive: 5.86% [at 12.8 µM] |

| SMILES | Potency | activity change, negative = inhibition |
| --- | --- | --- |
| Cc1ccc(NC(=O)NCc2cccnc2)cc1 | inactive |  |
| O=C(Nc1ccc(F)cc1)c1ccc(C(=O)N2CCCC(O)C2)cc1 (centres undefined) | inactive |  |
| CCS(=O)(=O)N1Cc2ccccc2CC1C(=O)OCC(=O)Nc1ccc(SC(F)F)cc1 (centres undefined) | inconclusive [activator, partial curve] |  |
| Cc1cc(SC#N)cc(C)c1NC(=O)CCl | inactive |  |
| CC(C)CS(=O)(=O)C1=NSC2=NC(=O)/C(=C\c3ccc(OC(=O)c4ccco4)cc3)C(=N)N21 | inconclusive [inhibitor, single point] |  |
| COc1cc2c(cc1NCc1ccc3c(c1)OCO3)oc1ccccc12 | inactive |  |
| CCOC(=O)c1c(CN2CCN(CCO)CC2)n(-c2ccccc2)c2cc(Br)c(O)cc12 | inconclusive [inhibitor, partial curve] |  |
| O=C(O)c1ccccc1C(=O)NNc1ccc(F)cc1 | inactive |  |
| N#CC(C#N)=C(Nc1ccc(F)cc1)SCc1cccc(Br)c1 | inconclusive [inhibitor, single point] |  |
| O=C(c1ccccc1Br)N1N=C(c2ccccc2)CC1c1ccccc1F (centres undefined) | inconclusive [activator, single point] |  |
| Nn1c(SCC(=O)Nc2ccccc2)nnc(Cc2ccccc2)c1=O | inconclusive [activator, single point] |  |
| CCOc1cccc2sc(N(CCCN(C)C)C(=O)c3ccc(S(=O)(=O)N(CC)Cc4ccccc4)cc3)nc12 | inconclusive [inhibitor, partial curve] |  |
| Cc1cccc(-c2ncc(CN3CCCC(CO)(Cc4ccccc4C)C3)cn2)c1 (centres undefined) | inconclusive [inhibitor, partial curve, poor fit] |  |
| COc1ccc(N2CCN(Cc3nc4c(c(=O)[nH]c(=O)n4C)n3CCCc3ccccc3)CC2)cc1 | inconclusive [inhibitor, partial curve] |  |
| COc1cc(S(=O)(=O)N(Cc2ccc(C)cc2)Cc2ccco2)ccc1-n1cnnn1 | inconclusive [activator, partial curve, poor fit] |  |
| CC(C)(C)c1csc(NC(=O)c2ccccc2O)n1 | inconclusive [activator, single point] |  |
| CCCCN(CC)CCNC(=O)CCC(=O)Nc1ccc2nc(N3CCN(C)CC3)cc(C)c2c1 | inconclusive [activator, partial curve] |  |
| Cc1ccccc1OCC(=O)Nc1ccccc1-c1ccccc1 | inconclusive [inhibitor, single point] |  |
| Cc1cc2[nH]c(=O)c(=O)[nH]c2cc1S(=O)(=O)N1CCN(c2cccc(Cl)c2)CC1 | inconclusive [inhibitor, partial curve] |  |
| Cc1ccc2cc(C3CC(c4ccco4)=NN3S(C)(=O)=O)c(Cl)nc2c1 (centres undefined) | inactive |  |
| Cc1noc(C)c1C(=O)OCC(=O)N1CCN(S(=O)(=O)c2ccc3ccccc3c2)CC1 | inconclusive [activator, single point] |  |
| COc1ccc(NC(=O)CN2CCN(C3c4ccccc4-c4ccccc43)CC2)cc1 | inconclusive [inhibitor, single point] |  |
